Among the data in PubChem BioAssay AID485344 (National Center for Advancing Translational Sciences (NCATS), 2010) are inhibition values, retold here.

Among all 340,000 compounds or so, about 6,900 (2%) were called active. No stated cut-off is given here; in the data, active means inhibition above about 30%; inactive means below that, where a call was filed. This is a selection; strong and weak results do not stand in their true shares. Where no call is shown, the source filed none.

What is called inhibition is the relative decrease from the control value, in per cent.

The target of this assay is D(2) dopamine receptor (Homo sapiens) (UniProt P14416). Nature of the assay: HTS Assay for Allosteric Antagonists of the Human D2 Dopamine Receptor: Primary Screen for Antagonists. Further: 0% is about no effect. The note with it: HEK293 TREx D2 cells, calcium flux, dopamine EC80; at 10 µM; stronger effect = higher value. The method in brief: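 Calcium mobilization kinetics were recorded at 1 s intervals in tetracycline-induced HEK293 T-REx D2 cells, first for 180 s after compound addition and then 180 s after EC80 dopamine.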
Chain of UniProt P14416 (P14416 whole entry, looked up): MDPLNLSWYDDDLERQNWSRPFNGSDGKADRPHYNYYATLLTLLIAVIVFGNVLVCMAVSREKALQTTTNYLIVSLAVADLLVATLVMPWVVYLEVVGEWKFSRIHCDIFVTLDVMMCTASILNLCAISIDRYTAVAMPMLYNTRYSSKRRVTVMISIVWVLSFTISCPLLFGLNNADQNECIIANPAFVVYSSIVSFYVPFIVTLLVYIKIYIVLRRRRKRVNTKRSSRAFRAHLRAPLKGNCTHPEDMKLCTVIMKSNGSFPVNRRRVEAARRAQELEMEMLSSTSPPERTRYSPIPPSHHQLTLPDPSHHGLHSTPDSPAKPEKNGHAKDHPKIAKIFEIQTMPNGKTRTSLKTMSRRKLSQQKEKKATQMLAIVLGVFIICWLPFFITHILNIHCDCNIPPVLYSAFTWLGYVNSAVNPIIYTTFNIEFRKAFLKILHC
Take `COc1ccc(-c2cc(C)no2)cc1S(=O)(=O)NC1CCC(C)CC1` (configuration not stated): the inhibition is 2.72%.

For the compound `Cn1cnc(S(=O)(=O)N2CCCC(C(=O)NCc3ccccc3)C2)c1` (configuration not stated), the inhibition is -28.6%.

`CCOc1ccc(NC(=O)c2cc(C)nc3c2c(C)nn3-c2cccc(F)c2)cc1`: the inhibition came to 2.92%. The same measure for `CC1(C(=O)NC2CCCCC2)Cc2ccccc2C(=O)N1Cc1ccc(F)cc1` (configuration not stated): 9.75%; for `Cc1ccc(S(=O)(=O)c2nc(-c3ccco3)oc2SCc2ccc(F)cc2)cc1`: 13.1%. The same measure for `COc1ccccc1CNS(=O)(=O)c1ccc2c(c1)CC(C)N2C(=O)C1CCC1` (configuration not stated): 5.6%.

With `Cc1c(-c2ccccc2)nc2ccccc2c1C(=O)OCC(=O)Nc1ncc(C(F)(F)F)cc1Cl`, the inhibition was active: 30%. The same measure for `Cc1c(C(=O)NCCCN2CCCC2=O)oc2ccc(S(=O)(=O)N3CCOCC3)cc12`: active: 44.3%; for `COCCOCC(O)CN1CCN(c2ccccc2)CC1` (configuration not stated): active: 59%. Under `COc1ccc(N2CCN(C(=O)C(C)n3c(=O)cc(C(F)(F)F)c4c(C)nn(C)c43)CC2)cc1` (configuration not stated) stands 1.75%. As for `COc1ccc(OC)c(NC(=O)Cn2c(=O)n(Cc3nc(C)no3)c(=O)c3ccccc32)c1`, the inhibition was determined as 0.232%. Take `COc1ccc(Cl)cc1NC(=O)NCCc1c(C)nn(C)c1C`: the inhibition worked out at 1.02%. As for `O=C(CSC1=Nc2ccccc2N=C(c2ccc(F)cc2)C1)Nc1ccc(Cl)cc1`, the inhibition worked out at 15.2%. In the case of `CC(=O)Nc1ccc(NC(=O)c2cc(-c3cccs3)on2)cc1`, the inhibition was -2.63%. `CCc1cccc(C)c1NC(=O)c1ccc2c(c1)CCN2S(=O)(=O)CC`: the inhibition is 4.73%. In the case of `Cc1ccc(Sc2c(C)nn(C(=O)c3ccc(Br)cc3)c2C)cc1`, the inhibition is -8.33%. For `COc1ccc(Nc2ncnc3onc(C)c23)c(OC)c1`, the inhibition is 0.891%. The same measure for `COc1ccccc1NC(=O)CSc1oc(-c2ccccc2)nc1S(=O)(=O)c1ccccc1`: -0.302%; for `COc1ccc2c(c1)c1c(c(=O)n(-c3cccc(C)c3)c(=O)n1CC(=O)NCC1CCCO1)n2C` (configuration not stated): 2.76%; for `COc1cc(-c2oc3ccc(C)cc3c(=O)c2O)cc(OC)c1OC`: 4.57%. Turning to `Cc1cc2c(n1-c1ccc(C(=O)NCc3ccc(OC(C)C)cc3)cc1)CCCC2`, the inhibition is -7.07%. Under `Cc1ccc(NC(=S)NC2CCN(Cc3ccccc3)CC2)c(C)c1` stands active: 46.9%; under `Cc1cccc(Cc2c(C)nc3nc(SCc4ccccc4F)nn3c2C)c1`, -0.749%. The same measure for `CCOc1ccccc1C(=O)Nc1ccc(S(=O)(=O)Nc2ncccn2)cc1`: -17.2%; for `Cc1ccc(C(=S)N2CCN(Cc3ccccc3)CC2)cc1`: active: 65.1%; for `CCN(CC)S(=O)(=O)c1cc(NC(=O)c2cc([N+](=O)[O-])ccc2N2CCOCC2)ccc1C`: active: 37.3%. The same measure for `CCN1C(=O)c2ccccc2S(=O)c2ccc(C(=O)N3CCN(c4ccccc4OC)CC3)cc21` (configuration not stated): 3.25%.

For `COc1cccc(CNC(=O)CCCCCn2c(=O)[nH]c3cc(OC)c(OC)cc3c2=O)c1`, the inhibition was 0.104%. Consider `CN(Cc1ccccc1)C(=O)c1cc(-c2cccc(Cl)c2)on1`, for which the inhibition turned out to be 14%. For `CS(=O)(=O)N(CCc1ccccc1)CC(=O)N1CCN(Cc2ccc3c(c2)OCO3)CC1`, the inhibition was active: 43.5%. The same measure for `CCOC(=O)c1c(C)[nH]c(C)c1S(=O)(=O)NCC(=O)NCc1ccccc1Cl`: -1.77%; for `COc1cc(C(CC(=O)Nc2cc(C)ccn2)N2Cc3ccccc3C2=O)cc(OC)c1OC` (configuration not stated): 1.23%; for `COCCSc1ccccc1C(=O)N1CCN(c2ccccc2OC)CC1`: active: 38.1%. Under `Cc1cc2c(n1-c1ccc(C(=O)NCCc3ccccc3)cc1)CCC(C)C2` (configuration not stated) stands 10.5%; under `CCCN(Cc1cccs1)C(=O)Nc1ccc(Br)cc1F`, 11.8%. Take `COc1ccc2[nH]c(=O)c(CN(C(=O)c3cccc(Cl)c3)c3cccc(C)c3)cc2c1`: the inhibition stood at 1.55%. For `CCN1CCN(c2ncc3c(n2)CCN(Cc2ccc(OC)c(OC)c2)C3)CC1`, the inhibition amounted to 6.22%. For `CC(C)c1cc(-c2nc(-c3ccc(Br)cc3)no2)n[nH]1`, the inhibition came out at 2.67%. The same measure for `COc1ccc2cc(CNc3ccc(C)cc3)c(=O)n(CC(=O)Nc3cccc(C(F)(F)F)c3)c2c1`: 4.12%; for `CC(=O)c1c(N2CCN(Cc3ccccc3)CC2)[nH]c(-c2ccccc2)nc1=S`: active: 72.9%.

As for `C[C@H](NC(=O)OCc1ccccc1)c1nnc([C@H](C)NC(=O)OCc2ccccc2)o1`, the inhibition is active: 38.3%. The same measure for `Cc1ccc(-c2nnc(Nc3ccc(O)cc3)c3ccccc23)cc1S(=O)(=O)N1CCCCC1`: -5.73%; for `O=c1c2cccnc2n(Cc2cccc(F)c2)c(=O)n1Cc1ccccc1Cl`: -3.74%; for `Cc1ccc(S(=O)(=O)c2cn(CC(=O)Nc3ccc4c(c3)OCO4)c3ccccc3c2=O)cc1C`: -2.11%. For `CC(C)(C)C(=O)Nc1ccc2nc(SCC(=O)N3CCc4ccccc43)sc2c1`, the inhibition was found to be 12.3%. The same measure for `COc1ccccc1-n1c(=O)c2c3c(sc2n(Cc2ccccc2F)c1=O)CN(C(C)=O)CC3`: -15.7%; for `O=C(NCCS(=O)(=O)N1CCN(c2ccc(F)cc2)CC1)C1CC(=O)N(c2ccccc2)C1` (configuration not stated): -17.1%; for `CCOc1ccc(NC(=O)c2cc3cc4cc(OC)ccc4nc3s2)cc1`: -0.408%. Under `Cc1cccc(NS(=O)(=O)c2ccc3c(c2)OCC(C(=O)N2CCCC2)O3)c1C` (configuration not stated) stands 12.8%. For `CCc1nn(CCCC(=O)NCc2cc(Br)ccc2OC)c(=O)c2cc3occc3n12`, the inhibition was found to be 3.89%.

For the compound `CCc1cccc(C)c1NC(=O)Cn1cc2c(n1)CCCCC2`, the inhibition was 3.65%. For `COc1ccccc1NC(=O)Cn1nnc(C(=O)Nc2ccccc2Br)c1N`, the inhibition is -2.77%. With `Cc1ccc(CNC(=O)c2cc(=O)c3cc(C)cc(C)c3o2)cc1`, the inhibition amounted to 18%. Consider `COc1cc(CCC(C)NCc2ccccc2)ccc1O` (configuration not stated), for which the inhibition was active: 74.9%. For `CC(=O)N1CCN(c2csc3ccc(Br)cc3c2=O)CC1`, the inhibition is -11.6%. Under `COC(=O)c1ccccc1NC(=O)c1cnc2sc(N3CCOCC3)nn2c1=O` stands 9.66%; under `CCC(C)NC(=O)CSc1nc(-c2ccc(F)cc2)cc(C(F)(F)F)n1` (configuration not stated), 6.95%.

Turning to `Cc1ccc(NC(=O)N2CCN(C)c3ncccc32)cc1C`, the inhibition is -10.2%.

In the case of `O=C(CN1C(=O)COc2ccc(S(=O)(=O)N3CCCCCC3)cc21)NCCc1ccccc1`, the inhibition came to 11%.

Consider `Cc1ccc(CN2C(=O)N(c3ccccc3)C(=O)C2CC(=O)Nc2ccccc2)cc1` (configuration not stated), for which the inhibition was -9.8%. As for `COc1cc(OC)c(N(C)C(=O)Cn2ncc3c(=O)oc4ccccc4c32)cc1Cl`, the inhibition was -6.31%.

For `COC(=O)c1ccccc1NC(=O)N1CCC(n2c(C)nc3cccnc32)CC1`, the inhibition was 13.8%.
